# Test results taken from the supplement of paper PMC8728848.
# The list shows a part of the results.
# B1: Epa22 (Candida glabrata) (protein)
# chain: MGSSHHHHHHSSGLVPRGSHMKRALSSQNPFGYPIGCSPQSTNVIPGLTMELYSYPIVSGTPPNCYDASYVDPEYPRTGYLKRKMIGKSTGVTGSLNYKFSVEKACMVKYGNLPAGYNYNEPLTVSNFTMLLYGYFKPQTSGIHTFFVNADDLLYINFGAGNAFDCCKREDSKFKLGEYVAYDIWHVDSSKNKVSLNLEKDVYYPIRMFFNNIGKDSSLDLSFSVNGAVEHITDFSGYLYSVPDQPDACPAPIGYDTTCK
# Experiments:
# Assay in all cases: glycan array binding signal (z-score within array); higher = stronger binding
# Conditions in all cases: glycan notation: IUPAC condensed, linker removed
# GlcNAc(b1-3)Gal(b1-4)Glc = molecular target: GlcNAc(b1-3)Gal(b1-4)Glc
# Procedure, shortened: (§1)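 Columns mapping to the same glycan were averaged after glycan names were converted to IUPAC-condensed notation. The data come from 3228 arrays in the Consortium for Functional Glycomics database, limited to those with an available protein sequence. Binding is reported as a within-array Z-score averaged across arrays of one protein sequence and across linkers.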
# [1] = molecular target: GlcNAc(b1-3)Gal(b1-4)GlcNAc
# Procedure, shortened: as §1
# [2] = molecular target: GlcNAc(b1-3)Gal(b1-4)GlcNAc(b1-2)Man(a1-3)[GlcNAc(b1-3)Gal(b1-4)GlcNAc(b1-2)Man(a1-6)]Man(b1-4)GlcNAc(b1-4)GlcNAc
# Procedure, shortened: as §1
# [3] = molecular target: GlcNAc(b1-3)Gal(b1-4)GlcNAc(b1-2)Man(a1-3)[GlcNAc(b1-3)Gal(b1-4)GlcNAc(b1-2)Man(a1-6)]Man(b1-4)GlcNAc(b1-4)[Fuc(a1-6)]GlcNAc
# Procedure, shortened: as §1
# [4] = molecular target: GlcNAc(b1-3)Gal(b1-4)GlcNAc(b1-2)[GlcNAc(b1-3)Gal(b1-4)GlcNAc(b1-6)]Man(a1-6)[GlcNAc(b1-3)Gal(b1-4)GlcNAc(b1-2)Man(a1-3)]Man(b1-4)GlcNAc(b1-4)GlcNAc
# Procedure, shortened: as §1
# [5] = molecular target: GlcNAc(b1-3)Gal(b1-4)GlcNAc(b1-3)Gal(b1-4)GlcNAc
# Procedure, shortened: as §1
# [6] = molecular target: GlcNAc(b1-3)Gal(b1-4)GlcNAc(b1-3)Gal(b1-4)GlcNAc(b1-2)Man(a1-3)[GlcNAc(b1-3)Gal(b1-4)GlcNAc(b1-3)Gal(b1-4)GlcNAc(b1-2)Man(a1-6)]Man(b1-4)GlcNAc(b1-4)GlcNAc
# Procedure, shortened: as §1
# [7] = molecular target: GlcNAc(b1-3)Gal(b1-4)GlcNAc(b1-3)Gal(b1-4)GlcNAc(b1-2)Man(a1-3)[GlcNAc(b1-3)Gal(b1-4)GlcNAc(b1-3)Gal(b1-4)GlcNAc(b1-2)Man(a1-6)]Man(b1-4)GlcNAc(b1-4)[Fuc(a1-6)]GlcNAc
# Procedure, shortened: as §1
# [8] = molecular target: GlcNAc(b1-3)Gal(b1-4)GlcNAc(b1-3)Gal(b1-4)GlcNAc(b1-2)[GlcNAc(b1-3)Gal(b1-4)GlcNAc(b1-3)Gal(b1-4)GlcNAc(b1-6)]Man(a1-6)[GlcNAc(b1-3)Gal(b1-4)GlcNAc(b1-3)Gal(b1-4)GlcNAc(b1-2)Man(a1-3)]Man(b1-4)GlcNAc(b1-4)[Fuc(a1-6)]GlcNAc
# Procedure, shortened: as §1
# [9] = molecular target: GlcNAc(b1-3)Gal(b1-4)GlcNAc(b1-3)Gal(b1-4)GlcNAc(b1-3)Gal(b1-4)GlcNAc(b1-2)Man(a1-3)[GlcNAc(b1-3)Gal(b1-4)GlcNAc(b1-3)Gal(b1-4)GlcNAc(b1-3)Gal(b1-4)GlcNAc(b1-2)Man(a1-6)]Man(b1-4)GlcNAc(b1-4)GlcNAc
# Procedure, shortened: as §1
# [10] = molecular target: GlcNAc(b1-3)Gal(b1-4)GlcNAc(b1-3)Gal(b1-4)GlcNAc(b1-3)Gal(b1-4)GlcNAc(b1-2)Man(a1-3)[GlcNAc(b1-3)Gal(b1-4)GlcNAc(b1-3)Gal(b1-4)GlcNAc(b1-3)Gal(b1-4)GlcNAc(b1-2)Man(a1-6)]Man(b1-4)GlcNAc(b1-4)[Fuc(a1-6)]GlcNAc
# Procedure, shortened: as §1
# [11] = molecular target: GlcNAc(b1-3)Gal(b1-4)GlcNAc(b1-3)Gal(b1-4)GlcNAc(b1-3)Gal(b1-4)GlcNAc(b1-2)[GlcNAc(b1-3)Gal(b1-4)GlcNAc(b1-3)Gal(b1-4)GlcNAc(b1-3)Gal(b1-4)GlcNAc(b1-6)]Man(a1-6)[GlcNAc(b1-3)Gal(b1-4)GlcNAc(b1-3)Gal(b1-4)GlcNAc(b1-3)Gal(b1-4)GlcNAc(b1-2)Man(a1-3)]Man(b1-4)GlcNAc(b1-4)[Fuc(a1-6)]GlcNAc
# Procedure, shortened: as §1
# [12] = molecular target: GlcNAc(b1-3)Gal(b1-4)GlcNAc(b1-3)Gal(b1-4)GlcNAc(b1-3)Gal(b1-4)GlcNAc(b1-3)Gal(b1-4)GlcNAc(b1-2)Man(a1-3)[GlcNAc(b1-3)Gal(b1-4)GlcNAc(b1-3)Gal(b1-4)GlcNAc(b1-3)Gal(b1-4)GlcNAc(b1-3)Gal(b1-4)GlcNAc(b1-2)Man(a1-6)]Man(b1-4)GlcNAc(b1-4)GlcNAc
# Procedure, shortened: as §1
# [13] = molecular target: GlcNAc(b1-3)Gal(b1-4)GlcNAc(b1-3)Gal(b1-4)GlcNAc(b1-3)Gal(b1-4)GlcNAc(b1-3)Gal(b1-4)GlcNAc(b1-2)Man(a1-3)[GlcNAc(b1-3)Gal(b1-4)GlcNAc(b1-3)Gal(b1-4)GlcNAc(b1-3)Gal(b1-4)GlcNAc(b1-3)Gal(b1-4)GlcNAc(b1-2)Man(a1-6)]Man(b1-4)GlcNAc(b1-4)[Fuc(a1-6)]GlcNAc
# Procedure, shortened: as §1
# [14] = molecular target: GlcNAc(b1-3)Gal(b1-4)GlcNAc(b1-3)Gal(b1-4)GlcNAc(b1-3)Gal(b1-4)GlcNAc(b1-3)Gal(b1-4)GlcNAc(b1-2)[GlcNAc(b1-3)Gal(b1-4)GlcNAc(b1-3)Gal(b1-4)GlcNAc(b1-3)Gal(b1-4)GlcNAc(b1-3)Gal(b1-4)GlcNAc(b1-6)]Man(a1-6)[GlcNAc(b1-3)Gal(b1-4)GlcNAc(b1-3)Gal(b1-4)GlcNAc(b1-3)Gal(b1-4)GlcNAc(b1-3)Gal(b1-4)GlcNAc(b1-2)Man(a1-3)]Man(b1-4)GlcNAc(b1-4)[Fuc(a1-6)]GlcNAc
# Procedure, shortened: as §1
# [15] = molecular target: GlcNAc(b1-3)Gal(b1-4)GlcNAc(b1-3)Gal(b1-4)GlcNAc(b1-3)GalNAc
# Procedure, shortened: as §1
# [16] = molecular target: GlcNAc(b1-3)Gal(b1-4)GlcNAc(b1-3)GalNAc
# Procedure, shortened: as §1
# [17] = molecular target: GlcNAc(b1-3)Gal(b1-4)GlcNAc(b1-3)[GlcNAc(b1-3)Gal(b1-4)GlcNAc(b1-3)]GalNAc
# Procedure, shortened: as §1
# [18] = molecular target: GlcNAc(b1-3)Gal(b1-4)GlcNAc(b1-6)[Gal(b1-3)]GalNAc
# Procedure, shortened: as §1
# [19] = molecular target: GlcNAc(b1-3)Gal(b1-4)GlcNAc(b1-6)[GlcNAc(b1-3)Gal(b1-3)]GalNAc
# Procedure, shortened: as §1
# [20] = molecular target: GlcNAc(b1-3)Gal(b1-4)GlcNAc(b1-6)[GlcNAc(b1-3)]Gal(b1-4)GlcNAc
# Procedure, shortened: as §1
# GlcNAc(b1-3)GalNAc = molecular target: GlcNAc(b1-3)GalNAc
# Procedure, shortened: as §1
# GlcNAc(b1-3)Man = molecular target: GlcNAc(b1-3)Man
# Procedure, shortened: as §1
# [21] = molecular target: GlcNAc(b1-3)[GlcNAc(b1-4)][GlcNAc(b1-6)]GlcNAc
# Procedure, shortened: as §1
# [22] = molecular target: GlcNAc(b1-3)[GlcNAc(b1-6)]Gal(b1-4)GlcNAc
# Procedure, shortened: as §1
# [23] = molecular target: GlcNAc(b1-3)[GlcNAc(b1-6)]GalNAc
# Procedure, shortened: as §1
# [24] = molecular target: GlcNAc(b1-4)Gal(b1-4)GlcNAc
# Procedure, shortened: as §1
# GlcNAc(b1-4)GlcNAc = molecular target: GlcNAc(b1-4)GlcNAc
# Procedure, shortened: as §1
# [25] = molecular target: GlcNAc(b1-4)GlcNAc(b1-4)GlcNAc
# Procedure, shortened: as §1
# [26] = molecular target: GlcNAc(b1-4)GlcNAc(b1-4)GlcNAc(b1-4)GlcNAc(b1-4)GlcNAc
# Procedure, shortened: as §1
# [27] = molecular target: GlcNAc(b1-4)GlcNAc(b1-4)GlcNAc(b1-4)GlcNAc(b1-4)GlcNAc(b1-4)GlcNAc
# Procedure, shortened: as §1
# [28] = molecular target: GlcNAc(b1-4)[GlcNAc(b1-6)]GalNAc
# Procedure, shortened: as §1
# [29] = molecular target: GlcNAc(b1-6)Gal(b1-4)GlcNAc
# Procedure, shortened: as §1
# GlcNAc(b1-6)GalNAc = molecular target: GlcNAc(b1-6)GalNAc
# Procedure, shortened: as §1
# [30] = molecular target: GlcNAc6S(b1-3)Gal(b1-4)GlcNAc
# Procedure, shortened: as §1
# Kdn(a2-3)Gal(b1-3)GalNAc = molecular target: Kdn(a2-3)Gal(b1-3)GalNAc
# Procedure, shortened: as §1
# Kdn(a2-3)Gal(b1-3)GlcNAc = molecular target: Kdn(a2-3)Gal(b1-3)GlcNAc
# Procedure, shortened: as §1
binder,measurement,setting,value
B1,glycan array binding signal (z-score),GlcNAc(b1-3)Gal(b1-4)Glc,-0.353
same,glycan array binding signal (z-score),[1],-0.312
same,glycan array binding signal (z-score),[2],-0.39
same,glycan array binding signal (z-score),[3],-0.347
same,glycan array binding signal (z-score),[4],-0.37
same,glycan array binding signal (z-score),[5],-0.331
same,glycan array binding signal (z-score),[6],0.106
same,glycan array binding signal (z-score),[7],-0.309
same,glycan array binding signal (z-score),[8],-0.317
same,glycan array binding signal (z-score),[9],-0.364
same,glycan array binding signal (z-score),[10],-0.26
same,glycan array binding signal (z-score),[11],-0.37
same,glycan array binding signal (z-score),[12],-0.344
same,glycan array binding signal (z-score),[13],-0.188
same,glycan array binding signal (z-score),[14],-0.378
same,glycan array binding signal (z-score),[15],-0.324
same,glycan array binding signal (z-score),[16],-0.305
same,glycan array binding signal (z-score),[17],-0.299
same,glycan array binding signal (z-score),[18],-0.293
same,glycan array binding signal (z-score),[19],-0.331
same,glycan array binding signal (z-score),[20],-0.387
same,glycan array binding signal (z-score),GlcNAc(b1-3)GalNAc,-0.37
same,glycan array binding signal (z-score),GlcNAc(b1-3)Man,-0.35
same,glycan array binding signal (z-score),[21],-0.383
same,glycan array binding signal (z-score),[22],-0.413
same,glycan array binding signal (z-score),[23],-0.387
same,glycan array binding signal (z-score),[24],-0.417
same,glycan array binding signal (z-score),GlcNAc(b1-4)GlcNAc,-0.413
same,glycan array binding signal (z-score),[25],-0.404
same,glycan array binding signal (z-score),[26],-0.238
same,glycan array binding signal (z-score),[27],-0.4
same,glycan array binding signal (z-score),[28],-0.402
same,glycan array binding signal (z-score),[29],0.729
same,glycan array binding signal (z-score),GlcNAc(b1-6)GalNAc,-0.395
same,glycan array binding signal (z-score),[30],-0.019
same,glycan array binding signal (z-score),Kdn(a2-3)Gal(b1-3)GalNAc,-0.361
same,glycan array binding signal (z-score),Kdn(a2-3)Gal(b1-3)GlcNAc,-0.236
